# According to PubChem BioAssay (NCATS):
# Values joined by “and” are separate entries in the source; they are usually repeats but may differ in a detail not shown here. Equal entries are not always repeated. Some of the results follow. The main result of the screen is listed elsewhere. These columns were measured beside it and carry no call. The list favours compounds with an active or inconclusive main result. The note in brackets gives the kind of curve behind each potency; many fits are weak.
# Assay: qHTS Assay for Lipid Storage Modulators (AID 1519)
# Details: Drosophila S3 cells, BODIPY lipid droplet/cell ratio, laser cytometry, cells loaded with oleic acid
# How it was run: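 Cells seeded at 5,000 per well were treated with compounds over a concentration series and loaded with oleic acid (400 uM, as added). Lipid droplet fluorescence (488 nm excitation, 500-530 nm channel) was read by laser-scanning cytometry and normalized to 20 uM Triacsin C.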
# [1] = measured here: cell count channel max response
# [2] = measured here: cell number channel AC50
# [3] = measured here: lipid (BODIPY) channel AC50
# [4] = measured here: lipid channel max response
# Tags give direction and shape of the fitted curve.
Compound,max response [1],AC50 [2],AC50 [3],max response [4]
CN(C)C(=O)c1ccc(-c2cncnc2Nc2ccccc2)cc1,20.5%,"501 nM [rising, full curve]","631 nM [rising, full curve]",24.6%
O=c1c(-c2cccs2)nc2cnc(Oc3ccccc3)nc2n1C1CC1,16.9%,"3550 nM [rising, partial curve]","1410 nM [rising, partial curve]",-6.1%
COc1cccc(Nc2ncc3nc(-c4ccc(F)cc4)c(=O)n(CCC#N)c3n2)c1,39.6%,"50.1 nM [rising, full curve, poor fit]","22.4 nM [rising, full curve]",-0.484%
COc1cc(=O)n(C)c2c(OCC(O)C(C)(C)O)cccc12 (configuration not stated),63.6% and 78.6%,"15800 nM [rising, partial curve, poor fit]","28200 nM [rising, partial curve, poor fit]",80.5% and 81.4%
COc1ccc2[nH]c(C(=O)c3ccccc3)cc2c1,98.5%,"2510 nM [rising, full curve]","1780 nM [rising, full curve]",114%
CCNc1ncc2nc(-c3cc(F)cc(F)c3)c(=O)n(CCOC)c2n1,46.5%,"316 nM [rising, full curve]","355 nM [rising, full curve]",38.5%
COc1ccccc1-c1cc(Nc2ccc(F)cc2)ncn1,15.8%,"794 nM [rising, full curve, poor fit]","891 nM [rising, full curve, poor fit]",19.6%
N#CCCn1c(=O)c(-c2ccc(Cl)cc2)nc2cnc(Nc3ccccc3)nc21,58.1%,"708 nM [rising, partial curve]","44.7 nM [rising, full curve, poor fit]",-17.8%
N#Cc1ccccc1-c1ccc2ncnc(NCCN3CCOCC3)c2c1,35.5%,"7940 nM [rising, full curve]","3980 nM [rising, full curve, poor fit]",32.2%
COc1ncc2nc(-c3ccc(Cl)cc3)c(=O)n(C[C@H]3CCCO3)c2n1,19%,"6.31 nM [rising, full curve, poor fit]","11.2 nM [rising, full curve, poor fit]",25.2%
COc1cccc(Nc2ncc3nc(-c4cc(F)cc(F)c4)c(=O)n(CCC#N)c3n2)c1,15.6%,"8.91 nM [rising, full curve, poor fit]","126 nM [rising, full curve]",-10.6%
COCCn1c(=O)c(C)nc2cnc(N3CCOCC3)nc21,32.3%,"8910 nM [rising, partial curve]","8910 nM [rising, partial curve]",39%
Cc1nc2cnc(OCc3ccccc3)nc2n(Cc2ccc(F)cc2)c1=O,22.9%,"3160 nM [rising, partial curve, poor fit]","15.8 nM [rising, full curve, poor fit]",36.8%
O=C(O)Cc1nn(Cc2ccc(Br)cc2F)c(=O)c2ccccc12,52.7%,"15800 nM [rising, partial curve, poor fit]","25100 nM [rising, partial curve, poor fit]",89.6%
Cc1nc2cnc(N3CCNCC3)nc2n(CCc2ccccc2)c1=O,34.9%,"398 nM [rising, full curve]","316 nM [rising, full curve]",42.5%
COc1ccc(Oc2ncc3nc(-c4cn(C)c5ccccc45)c(=O)n(C)c3n2)cc1,40%,"7940 nM [rising, partial curve, poor fit]","7080 nM [rising, partial curve]",48.3%
CCn1ccnc1C[C@@H]1COc2ccccc2O1,39.6%,"35500 nM [rising, single point]","35500 nM [rising, single point]",49.1%
COc1cccc(Cn2c(=O)c(-c3ccc(F)cc3)nc3cnc(N4CCOCC4)nc32)c1,18.5%,"794 nM [rising, full curve, poor fit]","631 nM [rising, full curve, poor fit]",27%
